According to PubChem BioAssay AID2147 (National Center for Advancing Translational Sciences (NCATS), 2009):
About 3,600 (1.6%) of roughly 230,000 compounds were called active. This list was built around the results that the source calls inconclusive (neither active nor inactive); the mix of calls is not that of the screen. Calls follow the shape of the dose curve; as a rule, active = well fitted inhibition curve with a large enough effect (not every such curve was filed as active); inconclusive = small, poorly fitted or top-dose-only effect, or another doubt; inactive = no such curve, though single readings can be large or run the other way. Potencies of inconclusive entries are doubtful fits and often do not repeat.

biological target: Lysine-specific demethylase 4E (Homo sapiens) (UniProt B2RXH2); assay: qHTS Assay for Inhibitors of Human Jumonji Domain Containing 2E (JMJD2E); settings: JMJD2E catalytic domain, FDH-coupled NADH fluorescence (FDH is formaldehyde dehydrogenase); series mostly up to 57.1 µM
Also: nearly all actives have a fitted effect of over 50% in size.
Potency is read from the fitted curve at half-maximal effect; tags tell the direction and shape of the fitted curve.

UniProt B2RXH2, sequence (B2RXH2 whole entry, looked up, the tested form may be a part): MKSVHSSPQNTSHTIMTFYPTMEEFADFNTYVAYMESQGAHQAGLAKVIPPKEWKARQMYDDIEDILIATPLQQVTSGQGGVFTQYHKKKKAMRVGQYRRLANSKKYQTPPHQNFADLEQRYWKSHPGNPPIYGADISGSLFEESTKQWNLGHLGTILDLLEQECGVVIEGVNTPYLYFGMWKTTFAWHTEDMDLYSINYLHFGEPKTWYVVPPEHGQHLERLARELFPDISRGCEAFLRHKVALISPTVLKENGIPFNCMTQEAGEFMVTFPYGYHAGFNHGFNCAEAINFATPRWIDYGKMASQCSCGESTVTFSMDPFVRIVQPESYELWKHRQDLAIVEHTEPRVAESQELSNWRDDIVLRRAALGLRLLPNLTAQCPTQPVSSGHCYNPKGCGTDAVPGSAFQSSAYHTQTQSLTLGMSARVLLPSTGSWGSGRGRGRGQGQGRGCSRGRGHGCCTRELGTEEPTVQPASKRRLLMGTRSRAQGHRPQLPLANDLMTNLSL

| SMILES | Potency |
| --- | --- |
| CCOC(=O)/C(=N/Nc1ccc(Cl)cc1)Sc1nnnn1-c1ccc(C)cc1 | inactive |
| Cc1ocnc1C(=O)Nc1ccc(Cl)cc1 | inconclusive: 39.8 µM [inhibitor, single point] |
| COCCCNCCCCOc1cccc(Br)c1 | inconclusive: 25.1 µM [inhibitor, single point] |
| Cc1ccc(-c2c(C#N)c(N)nc3c2CCCCC3)cc1 | inconclusive: 35.5 µM [inhibitor, single point] |
| COc1ccc(CCNC(=O)CC2Nc3ccccc3NC2=O)cc1 (stereo not given) | inconclusive: 31.6 µM [inhibitor, partial curve] |
| O=C1C2Sc3[nH]c(=O)sc3C(c3ccccc3)C2C(=O)N1c1ccccc1 (stereo not given) | inconclusive: 10 µM [inhibitor, partial curve] |
| COc1ccc(/C(O)=C2/C(=O)C(=O)N(CCCC(=O)O)C2c2ccc(OC)cc2)cc1 (stereo not given) | inactive |
| O=C(CN1C(=O)CCC1=O)NNc1ccc2ccccc2c1 | inconclusive: 35.5 µM [inhibitor, single point] |
| COc1ccccc1N(C(=O)c1snc(C(N)=O)c1N)C(C(=O)NCCC(C)C)c1ccco1 (stereo not given) | inconclusive: 31.6 µM [inhibitor, partial curve] |
| COc1ccc(CN2CCN(C(=O)c3cccs3)CC2)c(OC)c1OC | inconclusive: 35.5 µM [inhibitor, single point] |
| O=C(C[n+]1ccc(C(=O)N/N=C/c2ccc(O)cc2)cc1)c1ccccc1 | inconclusive: 20 µM [inhibitor, single point] |
| O=C1NC(=S)N/C1=C/c1cc([N+](=O)[O-])ccc1O | inactive |
| Cn1c(COc2ccccc2)nnc1SCCN1CCOCC1 | inconclusive: 25.1 µM [inhibitor, single point] |
| COc1ccccc1NC(=O)Nc1nnc(-c2ccco2)s1 | inconclusive: 39.8 µM [inhibitor, single point] |
| COc1cc(O)c2c(=O)c3c(OC)c(O)ccc3oc2c1 | inconclusive: 28.2 µM [inhibitor, single point] |
| CCOCC(=O)Nc1cccc(-c2nc3cccnc3s2)c1C | inconclusive: 39.8 µM [inhibitor, single point] |
| CCOc1ccc2nc(-c3ccc(OC)c(OC)c3)cc(C(=O)O)c2c1 | inconclusive: 35.5 µM [inhibitor, single point] |
| Cc1ccc(N(C(=O)c2cnccn2)C(C(=O)NC2CCCCC2)c2ccc(O)cc2)cc1 (stereo not given) | inactive |
| c1ccc(CN(CC2=NCCN2)c2ccccc2)cc1 | inconclusive: 35.5 µM [inhibitor, single point] |
| CCC1(C)Cc2nc3sc(C(=O)O)c(N)c3cc2CO1 (stereo not given) | inconclusive: 39.8 µM [inhibitor, single point] |
| CCn1c2ccccc2c2cc(/C=N/NC(=O)c3cc(O)cc(O)c3)ccc21 | inactive |
| Cc1cc(C)n2nc(/C(C#N)=C/c3ccccn3)c(C#N)c2n1 | inconclusive: 20 µM [inhibitor, partial curve] |
| COC(=O)c1cc(OC)c(OC)c(OC)c1N | inconclusive: 31.6 µM [inhibitor, partial curve] |

| SMILES | Potency |
| --- | --- |
| O=C(O)CSC(C(=O)Nc1ccc(Br)cc1)c1ccccc1 (stereo not given) | inactive |
| COC(=O)c1ccc(COc2ccccc2/C=C(\C#N)C(=O)NC(C)C)cc1 | inactive |
| Cc1cc(C)n(CC(O)Cn2c(C)c(C)c3ccccc32)n1 (stereo not given) | inconclusive: 31.6 µM [inhibitor, single point] |
| CC1Cc2ccccc2N1c1nc(C2CC2)nc2c1nnn2Cc1ccccc1 (stereo not given) | inconclusive: 35.5 µM [inhibitor, partial curve] |
| Cc1ccn2c(NCc3ccc4c(c3)OCO4)c(-c3ccc(O)cc3)nc2c1 | inconclusive: 10 µM [inhibitor, partial curve] |
| O=C(Cc1cccs1)Nc1ccccc1-c1nc2ccccc2[nH]1 | inconclusive: 31.6 µM [inhibitor, partial curve] |
| Cc1ccc(C(=O)Nc2cccc(Oc3ccccc3)c2)o1 | inactive |
| Nc1c(C(=O)N/N=C/c2cccnc2)oc2nc(-c3ccco3)cc(-c3ccco3)c12 | inconclusive: 25.1 µM [inhibitor, partial curve] |
| COc1ccc(NC(=O)CSc2nnc(NC(=O)c3ccccc3C(=O)O)s2)cc1 | inactive |
| N#Cc1ccc(C23CC4(C2)[C@H](CN(Cc2cccnc2)[C@@H]4c2ccccc2)C3c2ccc(C(F)(F)F)cc2)cc1 (stereo not given in full) | inactive |
| CCc1nc(SCC(=O)N2CCN(c3ccccc3)CC2)c2oc3ccccc3c2n1 | inconclusive: 39.8 µM [inhibitor, single point] |
| CN=c1oc2ccc(Cl)cc2cc1C(N)=O | inconclusive: 35.5 µM [inhibitor, single point] |
| NC(=O)c1c(NC(=O)CN2CCOCC2)sc2c1CCC2 | inconclusive: 39.8 µM [inhibitor, single point] |
| COc1cc2[nH]c(=S)nc(Nc3ccc(NC(C)=O)cc3)c2cc1OC | inactive |
| CC(=O)c1cc2c(cc1NC(=O)C1CC1)OCO2 | inconclusive: 35.5 µM [inhibitor, single point] |
| CCN(CC)S(=O)(=O)c1ccc(O)c(C(=O)OCC(=O)N(C)Cc2ccccc2)c1 | inconclusive: 28.2 µM [inhibitor, single point] |
| Cc1c(C)c2cc(Cl)c(O)c(CN3CCCC(C)C3)c2oc1=O (stereo not given) | inconclusive: 35.5 µM [inhibitor, partial curve] |
| COc1ccc(C(=O)Nc2ccccc2C(=O)NC(Cc2ccc(O)cc2)C(=O)NNC(=O)c2ccccc2)cc1 (stereo not given) | inconclusive: 35.5 µM [inhibitor, single point] |
| O=C1c2ccccc2C(=O)N1CC1=NCCc2ccccc21 | inconclusive: 39.8 µM [inhibitor, single point] |
| CC(=O)N/C(=C\c1ccccc1)C(=O)OCC(=O)N1CCCCCC1 | inactive |
| CCCn1c(=O)c2c(C(F)(F)F)cc(-c3cccs3)nc2n(CCC)c1=O | inconclusive: 1.58 µM [inhibitor, partial curve] |
| Cc1ccc(NS(=O)(=O)c2cc(NC(=O)c3cc4c(s3)CCCC4)ccc2C)c(C)c1 | inconclusive: 35.5 µM [inhibitor, single point] |
